# Source: paper PMC12136788
# The other results are listed elsewhere or left out.
# T1: UNK ZnF1-6 (called full-length) (human, UniProt Q9C0B0 30-357)
# T1 sequence: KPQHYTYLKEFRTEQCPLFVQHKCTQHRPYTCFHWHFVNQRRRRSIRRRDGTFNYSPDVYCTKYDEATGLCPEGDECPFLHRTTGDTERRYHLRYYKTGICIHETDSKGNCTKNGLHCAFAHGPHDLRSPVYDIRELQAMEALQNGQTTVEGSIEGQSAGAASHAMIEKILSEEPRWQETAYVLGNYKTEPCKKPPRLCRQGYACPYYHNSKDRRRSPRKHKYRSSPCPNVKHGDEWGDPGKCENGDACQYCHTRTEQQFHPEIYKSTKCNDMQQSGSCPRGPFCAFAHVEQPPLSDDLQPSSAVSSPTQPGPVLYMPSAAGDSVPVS
# B1: chr1:185309019:185309167:-|CDS|ENSG00000116679|unk|FALSE|unique (ssRNA)
# RNA: GGGAGUUCUACAGUCCGACGAUCGCACACAGAGCAGUGCUAGCUUGCUGCAGUCCCUAUUUAUUUGAAAUCUUUAAUAGUGAUAGUGAUCCUCAUGGAAUUUCUCACGUUAAAUUUGAUGAUCUCAAUCCAGAAGCUGUUGAACAACAGAGGAUUGAGCAUCA
# B2: chr18:9400975:9401076:+|3pUTR|ENSG00000128791|msi1|total|mutant (ssRNA)
# RNA: GGGAGUUCUACAGUCCGACGAUCUAUAAAAACCGAUAAUGCUCUUGGACACAUUUUGUAUUAUUCAUGAUCUGAACCGCCGUCCGUUAAAAGAUCAUUUGUAAUAUUAUGAUCAACUGUUAUAAAUUAAGGUCUUAAUACCUUCAACAGAGGAUUGAGCAUCA
# B3: chr17:42200006:42200107:-|3pUTR|ENSG00000173757|unk|total|mutant (ssRNA)
# RNA: GGGAGUUCUACAGUCCGACGAUCAAGCUGCCGUUUGCCUUGGCUUGGUUUCAUACACUGAUUUAUUUUUCUAUGCCAGGCAGCCGAGUCUCUCUGCCUCUGAGGAGCAGGCUACCCGCAUCCCACUCAGCCCCUCCCUACCCCCAACAGAGGAUUGAGCAUCA
# B4: chr12:50175971:50176072:-|3pUTR|ENSG00000050405|msi1|FALSE|bound_elsewhere (ssRNA)
# RNA: GGGAGUUCUACAGUCCGACGAUCCACAGUAUUCUCAGGGUGAAAUUAAACCAACUAUAGGCCUUUUUCUUGGGAUGAUUUUCUAGUCUUAAGGUUUGGGGACAUUAUAAACUUGAGUACAUUUGUUGUACACAGUUGAUAUUCCAACAGAGGAUUGAGCAUCA
# B5: chr5:141515350:141515460:-|3pUTR|ENSG00000131504|msi1_unk|total|mutant (ssRNA)
# RNA: GGGAGUUCUACAGUCCGACGAUCCUCAGCUUUCCAUCCCCAGCCCGGAAGAAAGAAUGGCACUCUUGGGCUUGGCCCAGAAUCCGAGUUAUCCGAGCAAGAGAGAGCUCCGGAAGCAUGAGGGCAACUACCGUGAGGCCUUAUCAACAGAGGAUUGAGCAUCA
# B6: chr3:48857559:48857660:-|3pUTR|ENSG00000178537|unk|FALSE|unique (ssRNA)
# RNA: GGGAGUUCUACAGUCCGACGAUCGGCUGAAGGCUGCUCAAGUUCACUUCUGGAUGCUGGAAGCUGUCGUUGAGGAGAAGGAGUAGUAAGCAGAACUAAGCAGUCUUGGAGGGCAAGGGGAGGGGAAUGGUGAGAUCCGAGCCCCAACAGAGGAUUGAGCAUCA
# Target: T1, UNK ZnF1-6 (called full-length)
# Experiment: nsRBNS (natural sequence RNA bind-n-seq); RBNS binding buffer (assumed for nsRBNS): 25 mM Tris pH 7.5, 150 mM KCl, 3 mM MgCl2, 0.01% Triton X-100, 500 ug/ml BSA, 20 U/ml SUPERase-In, 4 C; UNK is unkempt and MSI1 is Musashi-1; names of the RNAs are library labels; protein concentration not given here; high values mean tight binding
row,Binder,binding signal [enrichment R]
1,B1,0.523
2,B2,0.466
3,B3,1.13
4,B4,0.659
5,B5,0.58
6,B6,0.982
